PubChem BioAssay AID1240 (Sanford-Burnham Center for Chemical Genomics, 2008)
About 800 (1.6%) of roughly 50,000 compounds showed an effect of 50% or more. The list shows a part of the results.

Molecular target: Bcl-2-like protein 10 (Homo sapiens) (UniProt Q9HD36)
Test: Phenotype converters, Bcl-B/TR3 peptide binding displacement, primary biochemical FP (AID 1240);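 further: 0% = Bcl-B with tracer peptide and DMSO and 100% = tracer peptide lacking Bcl-B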
Details: GST-Bcl-B / FITC-TR3 peptide fluorescence polarization; stronger effect = higher value; compound at 3.75 mg/L

Chain of UniProt Q9HD36 (Q9HD36 whole entry, looked up): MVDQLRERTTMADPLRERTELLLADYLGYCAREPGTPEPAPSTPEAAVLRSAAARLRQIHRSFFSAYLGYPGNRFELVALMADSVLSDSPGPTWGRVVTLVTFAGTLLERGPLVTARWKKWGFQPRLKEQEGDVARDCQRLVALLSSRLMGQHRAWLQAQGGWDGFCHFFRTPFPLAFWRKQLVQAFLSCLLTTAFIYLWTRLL

| Compound | displacement |
| --- | --- |
| COc1ccc(CNC(=O)c2ccc([N+](=O)[O-])cc2)cc1 | 7.3% |
| O=[N+]([O-])c1ccc(N2CCN(CCO)CC2)cc1NCc1ccc(Cl)cc1 | -15.1% |
| COc1cc2c(cc1NC(=O)c1ccc3ccccc3n1)oc1ccccc12 | 39.5% |
| COC(=O)CC12CC3CC(C1)CC(c1ccc([N+](=O)[O-])cc1)(C3)C2 | -4.1% |
| COC(=O)C1=C(C)NC2=C(C(=O)CC(c3ccc4c(c3)OCO4)C2)C1c1ccccc1F (configuration not stated) | 9.5% |
| O=[N+]([O-])c1ccccc1S(=O)(=O)Nc1ccc(S(=O)(=O)N2CCOCC2)cc1 | 6.5% |
| O=C(NCCNc1ccc([N+](=O)[O-])cc1)c1cccc2c(Br)cccc12 | -6.5% |
| COc1cccc(/C=C2\SC(=S)N(CCC(=O)Nc3cccc(OC)c3)C2=O)c1 | 14.9% |
| CCOc1ccc(NC(=O)CN(c2ccc(F)cc2)S(=O)(=O)c2ccccc2)cc1 | 2.8% |
| COc1cc(C2=N/C(=C\N(C)C)C(=O)O2)cc(OC)c1OC | 9.2% |
| CS(=O)(=O)NCCNc1cc(Cl)ccc1[N+](=O)[O-] | 9.6% |
| C/C(=N/N)c1ccc(-c2ccccc2)cc1 | 14.9% |
| COc1ccc(NC(=O)c2sc3nccc(=O)n3c2C(=O)O)cc1 | 3.9% |
| COc1cccc(Oc2nc(N)[nH]c(=O)c2I)c1 | -55.6% |
| O=C(CN(c1ccccc1)S(=O)(=O)c1ccccc1[N+](=O)[O-])Nc1ccc(Cl)cc1 | 4.6% |
| O=C(NC(=O)c1ccc2ccccc2n1)NC(c1ccccc1)c1ccccc1 | 4.4% |
| Cc1sc(NC(=O)c2ccco2)c(C#N)c1C | 8.5% |
| Cc1c(-c2nc(-c3ccncc3)no2)cccc1[N+](=O)[O-] | 0.7% |
| CC1=C(C(=O)OC2CCCCC2)C(c2cccnc2)C2=C(CCCC2=O)N1 (configuration not stated) | -1.5% |
| COC(=O)c1cc(-c2ccc(Cl)s2)nc2ccccc12 | 2.8% |
| Cc1c(NC(=O)CCCN2C(=O)c3cccc4cccc(c34)C2=O)c(=O)n(-c2ccccc2)n1C | 10.4% |
| COC(=O)c1cc(Cl)c(NC(=O)c2ccco2)cc1OC | -1.2% |

| Compound | displacement |
| --- | --- |
| COc1ccc(OCC(=O)NS(=O)(=O)c2ccccc2)cc1 | 3.9% |
| CCOc1ccc(C(=O)N2CCc3ccccc3C2)cc1OCC | 9.8% |
| O=C1CC(N(Cc2ccccc2)Cc2ccccc2)C(=O)N1c1ccc(Cl)cc1 (configuration not stated) | 11.8% |
| CCOc1cccc(-c2cc(C(=O)N3CC(C)CC(C)C3)c3ccccc3n2)c1 (configuration not stated) | -16% |
| O=C(CSc1cc(Cl)ccc1Cl)Nc1cccc(C(F)(F)F)c1 | 17.4% |
| COc1cccc(-n2c(/C=C/c3cn(C)c4ccccc34)nc3ccccc3c2=O)c1 | 22.6% |
| COC1=CC(CC(=O)c2ccc(OC)c(OC)c2)C(C(=O)c2ccccc2Cl)C=C1OC (configuration not stated) | 1.8% |
| COc1ccc(Br)cc1C(=O)Nc1ccc(C(C)=O)cc1 | 7.5% |
| COc1ccc(N(CC(=O)NCc2ccccc2)S(=O)(=O)c2ccc(C)cc2)c(OC)c1 | 10.4% |
| CCOC(=O)C1=C(N)OC2=C(C(=O)CC(c3ccccc3Cl)C2)C1c1ccccc1Cl (configuration not stated) | -7.4% |
| O=C(Nc1c(-c2cccs2)nc2ccccn12)c1ccc(Cl)cc1 | 7.8% |
| O=C(Nc1ccc(S(=O)(=O)N2CCCCC2)cc1)c1ccc(F)cc1 | 5.1% |
| Cc1cccc(OCC(=O)Nc2ccc3c(c2)OCO3)c1C | 9.6% |
| COc1ccc(OC)c(NC2=C(Cl)C(=O)N(c3ccc(Br)cc3)C2=O)c1 | -5.1% |
| CCOC(=O)c1c(NC(=O)Nc2ccccc2)sc2c1CCCCCC2 | -6.8% |
| O=C(c1ccc(-c2ccc([N+](=O)[O-])cc2)o1)N1CCOCC1 | 6.7% |
| NS(=O)(=O)c1ccc(-c2ccc(/C=C3\SC(=S)N(CCc4ccccc4)C3=O)o2)cc1 | 9.1% |
| O=C(CSc1nsc(SCC(=O)Nc2nc(-c3ccccc3)cs2)n1)Nc1nc(-c2ccccc2)cs1 | 7.1% |
| COc1ccc(C(=O)NCCC(c2ccccc2)c2ccccc2)cc1OC | -10.6% |
| COC(=O)C1=C(C(=O)OC)SC(=C2C(=S)C(C)(C)N(C(=O)c3ccccc3)c3cc(OC)ccc32)S1 | 5% |
| CCOc1ccc(C(=S)N2CCOCC2)cc1 | -10.9% |
| COc1ccc(N2C(=O)NC(=O)/C(=C\c3ccc(-c4ccccc4C(=O)O)o3)C2=O)cc1 | -88.8% |

| Compound | displacement |
| --- | --- |
| c1ccc2cc3[nH]c(CN4CCCCC4)nc3cc2c1 | 9% |
| Cc1cccc(NC(=O)c2cc(Cl)ccc2[N+](=O)[O-])c1 | 5% |
| COc1cc(NC(=O)COc2ccc(Cl)cc2Cl)ccc1NC(=O)c1ccco1 | -17.2% |
| CCCOc1ccc(-c2ccc(-c3nc(-c4cc(OC)c(OC)c(OC)c4)no3)cc2)cc1 | -12.2% |
| CC1(C)Cc2ccccc2/C(=C/C(=O)Nc2ccc([N+](=O)[O-])cc2)N1 | 1.4% |
| COC(=O)CN1C(c2cc(OC)c(OC)c(OC)c2)Nc2ccc(C)cc2C1c1ccccc1 (configuration not stated) | 17.6% |
| Cc1c(C(=O)Oc2ccc(Cl)cc2)cccc1[N+](=O)[O-] | 12.3% |
| Cc1ccc(OCC(=O)N2CCN(c3ccc([N+](=O)[O-])cc3)CC2)cc1C | 12.4% |
| Cc1cc2c(cc1C)NC(c1c(F)cccc1F)C1=C(CC(C)(C)CC1=O)N2 (configuration not stated) | 10.3% |
| COc1ccc(CCNC(=O)c2ccc(I)cc2)cc1 | -10.7% |
| Cn1c(=O)cc(Nc2ccc(Cl)cc2)[nH]c1=O | -1.1% |
| NC1=NC(=O)CC(C(=O)Nc2cccc([N+](=O)[O-])c2)S1 (configuration not stated) | 0.3% |
| O=CNC(NC(=S)Nc1cc(Cl)ccc1Cl)C(Cl)(Cl)Cl (configuration not stated) | -13.9% |
| CCOC(=O)c1c[nH]c2c(Cl)cc(Cl)cc2c1=O | -2.7% |
| Cc1cccc(N2C(=O)C(=O)/C(=C(\O)c3ccccc3)C2c2ccccc2F)c1 (configuration not stated) | 4.4% |
| O=c1[nH]c(=S)n(-c2ccccc2)c(O)c1/C=C1\C=Nc2ccccc21 | 7.9% |
| Fc1ccc(-c2ccc(/C=N/n3cnnc3)o2)cc1 | 7.8% |
| COc1ccc(NC(=O)c2cc3cc(Br)ccc3oc2=O)c(OC)c1 | -4.7% |
| O=C(Cc1ccccc1)NC1(Cc2ccc(O)cc2)CCCCC1 | -3.3% |
| O=S1(=O)CCC(Nc2ccccc2)C1 (configuration not stated) | 0.9% |
| O=C(Nc1ccccc1)C1C(c2ccccc2)=C1c1ccccc1 | 0% |
| O=C(CN1C(=O)/C(=C/c2ccccc2Cl)SC1=S)N1CCOCC1 | -6.4% |

| Compound | displacement |
| --- | --- |
| Nc1nnc(SCC(=O)Nc2ccc(Cl)c(Cl)c2)s1 | 1.8% |
| O=C(c1cccs1)N1CCN(Cc2ccc(Cl)cc2)CC1 | -14.9% |
| CCOc1ccccc1C(=O)NCCc1nc2ccccc2[nH]1 | 4.7% |
| O=C1NC(=S)N(c2ccccc2)C(=O)/C1=C/c1ccc(OCc2ccc(Cl)cc2)cc1 | 6.1% |
| COc1cccc(NS(=O)(=O)c2ccc(OC)c(Br)c2)c1 | -4.6% |
| Cn1cccc1CN1CCN(C(=O)c2ccccc2F)CC1 | -5.4% |
| CC(C)CC(NC(=O)OC(C)(C)C)C(=O)O (configuration not stated) | -2.3% |
| Cn1nnnc1SCC(=O)Nc1ccc2c(c1)oc1ccccc12 | 87% |
| CCOC(=O)c1cc(C2CC2)nc2ccccc12 | -5.3% |
| COc1ccc(NC(=O)Cc2ccc(Br)cc2)c([N+](=O)[O-])c1 | -2.5% |
| CC(=O)c1ccc(NC(=O)CSc2nc3ccc([N+](=O)[O-])cc3s2)cc1 | 9.4% |
| O=C(/C=C/c1ccccc1F)c1c(-c2ccccc2)c2cc(Br)ccc2[nH]c1=O | 6.3% |
| CN(C)Cn1c(O)c(N=NC(=O)c2ccncc2)c2ccccc21 | -3% |
| CCOC(=O)c1nc2nc(-c3cccs3)cc(C(F)(F)F)n2n1 | 16.4% |
| CC(O)c1nc2ccccc2n1Cc1ccccc1 (configuration not stated) | -0.5% |
| NC(=O)c1cc(NC(=O)c2ccc(Cl)c(Cl)c2)ccc1Cl | 19.9% |
| O=C(O)CN1C(=O)C2CC=CCC2C1=O (configuration not stated) | -3.5% |
| Brc1ccc(-c2nc(-c3ccccc3)nc(-c3ccccc3)n2)cc1 | 2.5% |
| C=CCc1ccc(OC(=O)NC2CCCCC2)c(OC)c1 | 7.5% |
| O=C(NCc1ccc2c(c1)OCO2)c1ccc(C#Cc2ccccc2)cc1 | -1% |
| CCOC(=O)c1ccc(NS(=O)(=O)c2ccc(C)c([N+](=O)[O-])c2)cc1 | 12.5% |
| Cc1ccc2[nH]c(C(=O)N/N=C/c3ccc4c(c3)OCO4)c(-c3ccccc3)c2c1 | -13.9% |

| Compound | displacement |
| --- | --- |
| Cc1ccc(-c2csc(NC(=O)C3CC=CCC3C(=O)O)n2)cc1 (configuration not stated) | 1.8% |
| O=C(/C=C/c1ccc(Cl)cc1)Nc1ccc(I)cc1Cl | 6.8% |
| CC(C)COc1ccc(C(=O)Nc2ccc(N3CCOCC3)c(Cl)c2)cc1 | 14.4% |
| CC(C)CCOC(=O)c1n[nH]c([N+](=O)[O-])c1[N+](=O)[O-] | -8.5% |
| O=C1c2ccc(S(=O)(=O)c3ccc4c(c3)C(=O)N(c3nccs3)C4=O)cc2C(=O)N1c1nccs1 | 4.6% |
| COc1c(F)c(F)c(-c2c(F)c(F)c(OC)c(F)c2F)c(F)c1F | 11.2% |
| COc1ccc(NC(=O)C(=O)NCCO)cc1Cl | 4.9% |
| COc1ccc(/C=C2/SC(=O)N(CC(=O)Nc3ccc(C)c(C)c3)C2=O)cc1OC | 67% |
| COc1ccc(S(=O)(=O)N(CC(=O)NCC2CCCO2)Cc2ccccc2)cc1 (configuration not stated) | 13.6% |
| Cc1ccc(NC(=O)c2c(-c3ccccc3)noc2C)cc1Cl | -1.5% |
| OC(C#CC12CC3CC(CC(C3)C1)C2)c1cccnc1 (configuration not stated) | -10.7% |
| c1ccc(NCc2ccc3c(c2)OCO3)cc1 | 6.8% |
| CCCCCCOc1ccc(N2C(=O)CC(NCCc3ccc(OC)c(OC)c3)C2=O)cc1 (configuration not stated) | -11.9% |
| COC(=O)Cn1cc(/C=C2\C(=O)NC(=O)N(c3cccc(F)c3)C2=O)c2ccccc21 | 35.8% |
| COC(=O)c1c(-c2ccccc2)csc1NC(=O)CCCC(=O)O | 7.6% |
| CCOC(=O)C1=C(C)N(C)C(=O)NC1c1ccc(Cl)c(Cl)c1 (configuration not stated) | 7.8% |
| COc1cc(/C=N\Nc2nnc(C)c(=O)[nH]2)cc(Br)c1O | -5.2% |
| COc1ccc(S(=O)(=O)N2CCN(Cc3cccc(C)c3)CC2)cc1 | 2.5% |
| CCCCOc1ccc(NC(=O)c2ccncc2)cc1 | 12.7% |
